# Data from the supplement of paper PMC7826260.
# Some of the results follow. Viral Rep nickase domains cut single-stranded DNA in vitro (1 h at 37 °C, 3 µM enzyme); the outer parts of the 90-letter strands are left off. Values are log2 of uncut reads against the no-enzyme pool; the lower, the more was cut; hits are not called. Counts are relative to all reads; uncut strands gain when others are lost, and binding without cutting may add a little.
# Test system: T1, Rep nickase domain of porcine circovirus 2
# T1 sequence (residues 2-116 of Rep, tag left off): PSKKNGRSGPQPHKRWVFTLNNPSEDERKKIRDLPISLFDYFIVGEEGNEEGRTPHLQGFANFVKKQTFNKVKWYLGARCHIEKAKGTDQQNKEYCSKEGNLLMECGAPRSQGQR
# Assay: uncleaved DNA left, log2 of reads against the no-enzyme library (log2 ratio); higher = less cleavage (more negative = more Rep cleavage of the k-mer); sequences stand for … in CTCGTCCG…ACCGGAGA
# Method: (§1)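 A pool of 90-nt single-stranded DNAs with seven random bases just before the constant AC of the nick site (name = the seven bases) was cut by 3 µM recombinant His6-SUMO-tagged Rep nickase domain (300 nM DNA, 50 mM HEPES pH 8.0, 50 mM NaCl, 1 mM MnCl2, 1 h, 37 °C, three replicates). Uncut DNA was amplified and sequenced.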
row,Sequence,uncleaved DNA left (log2)
1,CCTCCGC,0.0472
2,TAAGTGC,0.14
3,CGTTTTT,-2.79
4,CTCCCTA,-0.2
5,GCTAGAC,0.166
6,GATCTTG,0.104
7,CGATCCC,0.00133
8,CGCCCTA,-0.236
9,TGCTCGT,-0.232
10,GCTACAG,0.207
11,GGGGACG,0.176
12,CGGAAAT,0.135
13,AGTTCTG,0.0093
14,CTGAATG,0.3
15,CGGTTCG,0.13
16,GTATGTT,-2.34
17,TCTCCCC,-1.7
18,CTGCCGT,-0.257
19,GCTGTCG,0.0109
20,TAGGAAT,-0.309

row,Sequence,uncleaved DNA left (log2)
1,AGCGGTG,0.234
2,CCCCTCC,-0.171
3,CTACGAA,0.168
4,TAAAAAT,-1.49
5,TCAAATA,-0.0273
6,GCGGTAC,0.07
7,GACCTCC,-0.077
8,CGAGTCA,-0.412
9,CAATGGT,-2.05
10,CTGATAC,-0.236
11,TTCAGAA,0.174
12,ACCTCGC,-0.0877
13,ACGCCTA,-0.0249
14,CATTTCG,0.0724
15,CAGATAT,-3.14
16,ACCCGCT,-0.108
17,GTACCAT,0.0213
18,ACTAGGG,0.183
19,ACATATT,-3.48
20,ATTGTTT,-2.28

# Test system: T2, Rep nickase domain of tomato golden mosaic virus
# T2 sequence (residues 1-124 of Rep, tag left off): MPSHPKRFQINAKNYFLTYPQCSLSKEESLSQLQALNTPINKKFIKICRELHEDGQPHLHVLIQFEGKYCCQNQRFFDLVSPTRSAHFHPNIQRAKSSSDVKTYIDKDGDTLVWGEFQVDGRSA
# Assay: as above
# Method: as §1
row,Sequence,uncleaved DNA left (log2)
1,CCTCCGC,-0.0276
2,TAAGTGC,-0.131
3,CGTTTTT,0.0575
4,CTCCCTA,-0.0651
5,GCTAGAC,0.107
6,GATCTTG,0.0316
7,CGATCCC,-0.164
8,CGCCCTA,-0.0398
9,TGCTCGT,-0.185
10,GCTACAG,0.106
11,GGGGACG,0.154
12,CGGAAAT,-0.011
13,AGTTCTG,0.0378
14,CTGAATG,0.222
15,CGGTTCG,-0.168
16,GTATGTT,-0.226
17,TCTCCCC,-0.0971
18,CTGCCGT,-0.222
19,GCTGTCG,0.133
20,TAGGAAT,0.127

row,Sequence,uncleaved DNA left (log2)
1,AGCGGTG,0.211
2,CCCCTCC,-0.039
3,CTACGAA,0.141
4,TAAAAAT,-2.76
5,TCAAATA,0.0469
6,GCGGTAC,0.0751
7,GACCTCC,-0.122
8,CGAGTCA,0.00224
9,CAATGGT,-1.67
10,CTGATAC,0.0362
11,TTCAGAA,0.198
12,ACCTCGC,-0.0663
13,ACGCCTA,0.14
14,CATTTCG,-0.0908
15,CAGATAT,0.123
16,ACCCGCT,-0.191
17,GTACCAT,0.0677
18,ACTAGGG,-0.0733
19,ACATATT,-0.48
20,ATTGTTT,-0.0805

# Test system: T3, Rep nickase domain of tomato yellow leaf curl virus
# T3 sequence (residues 1-136 of Rep, tag left off): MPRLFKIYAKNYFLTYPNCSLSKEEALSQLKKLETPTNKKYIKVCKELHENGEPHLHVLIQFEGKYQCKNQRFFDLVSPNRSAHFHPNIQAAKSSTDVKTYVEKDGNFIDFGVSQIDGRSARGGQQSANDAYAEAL
# Assay: as above
# Method: as §1
row,Sequence,uncleaved DNA left (log2)
1,CCTCCGC,-0.0848
2,TAAGTGC,0.0162
3,CGTTTTT,-0.075
4,CTCCCTA,0.211
5,GCTAGAC,0.0616
6,GATCTTG,0.0993
7,CGATCCC,0.0564
8,CGCCCTA,-0.0178
9,TGCTCGT,-0.0863
10,GCTACAG,0.203
11,GGGGACG,-0.0859
12,CGGAAAT,0.151
13,AGTTCTG,-0.0871
14,CTGAATG,0.124
15,CGGTTCG,-0.0103
16,GTATGTT,-0.0188
17,TCTCCCC,-0.0609
18,CTGCCGT,-0.291
19,GCTGTCG,-0.00437
20,TAGGAAT,0.0466

row,Sequence,uncleaved DNA left (log2)
1,AGCGGTG,0.1
2,CCCCTCC,-0.141
3,CTACGAA,0.0267
4,TAAAAAT,0.02
5,TCAAATA,0.0204
6,GCGGTAC,0.133
7,GACCTCC,-0.223
8,CGAGTCA,0.107
9,CAATGGT,-0.295
10,CTGATAC,-0.0899
11,TTCAGAA,0.0518
12,ACCTCGC,-0.259
13,ACGCCTA,0.00839
14,CATTTCG,0.151
15,CAGATAT,-0.124
16,ACCCGCT,-0.202
17,GTACCAT,0.105
18,ACTAGGG,0.00948
19,ACATATT,-0.0429
20,ATTGTTT,-0.156

# Test system: T4, Rep nickase domain of wheat dwarf virus
# T4 sequence (residues 1-137 of Rep, tag left off): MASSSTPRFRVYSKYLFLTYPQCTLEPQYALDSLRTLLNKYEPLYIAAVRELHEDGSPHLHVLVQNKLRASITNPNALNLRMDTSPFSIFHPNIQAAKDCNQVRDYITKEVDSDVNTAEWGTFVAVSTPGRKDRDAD
# Assay: as above
# Method: as §1
row,Sequence,uncleaved DNA left (log2)
1,CCTCCGC,-0.0702
2,TAAGTGC,-0.18
3,CGTTTTT,-0.112
4,CTCCCTA,0.065
5,GCTAGAC,0.121
6,GATCTTG,0.1
7,CGATCCC,-0.0121
8,CGCCCTA,-0.00447
9,TGCTCGT,-0.122
10,GCTACAG,0.134
11,GGGGACG,0.15
12,CGGAAAT,0.0865
13,AGTTCTG,-0.0163
14,CTGAATG,0.246
15,CGGTTCG,-0.0953
16,GTATGTT,-0.18
17,TCTCCCC,-0.0173
18,CTGCCGT,-0.305
19,GCTGTCG,-0.0541
20,TAGGAAT,0.0991

row,Sequence,uncleaved DNA left (log2)
1,AGCGGTG,0.0883
2,CCCCTCC,-0.155
3,CTACGAA,-0.0529
4,TAAAAAT,-3.47
5,TCAAATA,-0.027
6,GCGGTAC,0.004
7,GACCTCC,0.00789
8,CGAGTCA,-0.0411
9,CAATGGT,-1.9
10,CTGATAC,-0.0451
11,TTCAGAA,0.127
12,ACCTCGC,-0.187
13,ACGCCTA,0.036
14,CATTTCG,-0.0891
15,CAGATAT,0.0977
16,ACCCGCT,-0.261
17,GTACCAT,0.164
18,ACTAGGG,-0.0169
19,ACATATT,-0.738
20,ATTGTTT,-0.15
